Data taken from the supplement of paper PMC11741623.
The list shows a part of the results. Interaction screen of human proteins with wild-type SARS-CoV-2 proteins by split-DHFR complementation in yeast, 1 µg/mL methotrexate. Value = fitness of the pair (three or more lineages) minus that of the viral protein without a human partner, on a scale set by negative (0) and fused positive (1) controls, mean of up to three cultures; higher = more likely to interact. Active = false discovery rate below 0.05 (one-sided t-test) in at least one culture. Nearly all pairs are not hits, and differences among them are mostly noise (correlation between cultures about 0.3); most hits were seen in one culture only. Human sequences are the Swiss-Prot entries looked up by gene name; the clone may be another isoform. NSP2 values were corrected by the authors for a growth advantage. Listed are human proteins with a hit and a random twelfth of the others.

The substances below were run on SARS-CoV-2 ORF9B (assay: yeast fitness gain over the viral ORF with no human partner (scaled fitness); higher = more likely to interact).
Method: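 Split mouse DHFR complementation in pooled diploid yeast: human ORFeome clones carry one fragment and viral ORFs the other; barcoded lineages compete in 1 µg/mL methotrexate and fitness is read by barcode sequencing in up to three cultures.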
For FAM19A3, Q7Z5A8, the yeast fitness gain was inactive: 0.0391. BNIP3L, O60238 was tested, and the yeast fitness gain was inactive: -0.0847. For KLF6, Q99612, the yeast fitness gain was inactive: -0.109. For OR4C6, Q8NH72, the yeast fitness gain was inactive: 0.279. For IDH3B, O43837, the yeast fitness gain was inactive: 0.0116. ZNF785, A8K8V0 was tested, and the yeast fitness gain was inactive: -0.0566. In the case of FAM136A, Q96C01, the yeast fitness gain is reported as inactive: -0.00259. In the case of BHLHA15, Q7RTS1, the yeast fitness gain is reported as inactive: -0.00902. With IHH, Q14623 the yeast fitness gain was inactive: 0.0453. With TLX3, O43711 the yeast fitness gain was inactive: 0.033. For SRGAP1, Q7Z6B7, the yeast fitness gain was inactive: -0.173. HAUS7, Q99871 was tested, and the yeast fitness gain was inactive: 0.112. With RALYL, Q86SE5 the yeast fitness gain was inactive: 0.0356. With NDRG4, Q9ULP0 the yeast fitness gain was inactive: 0.0359. KPNA1, P52294 was tested, and the yeast fitness gain was inactive: -0.075. For ZNF611, Q8N823, the yeast fitness gain was inactive: 0.11. TLK2, Q86UE8 was tested, and the yeast fitness gain was inactive: -0.0994. With EGR3, Q06889 the yeast fitness gain was inactive: 0.039. With DESI2, Q9BSY9 the yeast fitness gain was inactive: 0.0514. With POLD2, P49005 the yeast fitness gain was inactive: 0.0155. ZNF517, Q6ZMY9 was tested, and the yeast fitness gain was inactive: 0.0292. HYDIN, Q4G0P3 was tested, and the yeast fitness gain was inactive: -0.0178. For PRR14L, Q5THK1, the yeast fitness gain was inactive: -0.00066. For HSPB7, Q9UBY9, the yeast fitness gain was inactive: -0.0735. In the case of TIMM50, Q3ZCQ8, the yeast fitness gain is reported as inactive: 0.0524. With ZNF673, Q5JUW0 the yeast fitness gain was inactive: 0.0149. For MT2A, P02795, the yeast fitness gain was inactive: -0.0122. RGS3, P49796 was tested, and the yeast fitness gain was inactive: -0.0291. OXCT1, P55809 was tested, and the yeast fitness gain was inactive: 0.0257. MAGEA10, P43363 was tested, and the yeast fitness gain was inactive: 0.0154. With TET2, Q6N021 the yeast fitness gain was inactive: 0.0785. ZFYVE26, Q68DK2 was tested, and the yeast fitness gain was inactive: -0.041. With OR4D1, Q15615 the yeast fitness gain was inactive: 0.019. In the case of PTCD1, O75127, the yeast fitness gain is reported as inactive: -0.00335. In the case of CABP5, Q9NP86, the yeast fitness gain is reported as inactive: 0.00328. With MAFF, Q9ULX9 the yeast fitness gain was inactive: -0.0601. MCM9, Q9NXL9 was tested, and the yeast fitness gain was inactive: -0.00359.
